In PubChem BioAssay AID1508624 (National Center for Advancing Translational Sciences (NCATS), 2021):
About 120 (0.25%) of roughly 48,000 compounds were called active. Inconclusive results (about 4%) are left out. Calls follow the shape of the dose curve; as a rule, active = well fitted activation curve with a large enough effect; inconclusive = small, poorly fitted or top-dose-only effect, or another doubt; inactive = no such curve, though single readings can be large or run the other way. Some of the results follow.

assay: Primary qHTS for Identification of Small Molecule Activators of Huntingtin-Antisense Promoter Activity; details: HEK293 HTT-AS promoter firefly luciferase reporter, 24 h; series mostly up to 57.5 µM; activity change, positive = activation: at the top concentration; also: nearly all actives have a fitted effect of over 55% in size
In short: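 HEK293 luciferase promoter-reporter cells (2,500/well) plated 24 h, then compounds added at up to 57.5 uM final for 24 h at 37 °C. Firefly luminescence by Dual-Glo, normalized to vehicle (0%) and zero RLU (-100%).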

Activity change, positive = activation, inactive:
CCOc1ccc(CCNC(=O)c2ccc3nc(N4CCC(C)CC4)sc3c2)cc1OCC -77%
CCN(CCCNC(=O)CN1N=C(c2ccccc2)CCC1=O)c1cccc(C)c1 -20.7%
CCC(C)n1c(=O)c2sccc2n2c(CCCC(=O)Nc3ccc(F)cc3)nnc12 (stereo not drawn) -13.5%
CSc1ncc(Cl)c(C(=O)Nc2c(C(=O)c3ccc(C)cc3)oc3ccccc23)n1 -25.9%
CC1CCN(S(=O)(=O)c2ccc3[nH]ccc3c2)CC1 -18.2%
O=C1NC(NS(=O)(=O)c2ccccc2)(C(F)(F)F)C(=O)N1CCc1ccccc1 (stereo not drawn) -17.8%
CCOc1ccc(-c2cc3nc(C4CCN(C(=O)OC(C)(C)C)CC4)c(C(=O)Nc4cccc(Cl)c4C)cn3n2)cc1 14.3%
Cn1cc(CCCC(=O)NCc2ccc(F)cc2)c2ccccc21 -11.3%
CC(NCCC(c1ccccc1)c1ccccc1)c1ccccc1 (stereo not drawn) -28.8%
O=C(CCC(=O)N1CCOc2ccccc21)NCc1cccs1 7.37%
Cc1ccc2[nH]c3c(=O)n(CC(=O)N4CCN(c5ccccc5F)CC4)ncc3c2c1 -8.04%
O=S(=O)(NCCc1nnc2ccc(SCc3cccc(Cl)c3)nn12)c1ccccc1 -25.6%
CC(=O)N1CCCc2cc(S(=O)(=O)N3CCCC(C(=O)Nc4ccc(F)cc4F)C3)ccc21 (stereo not drawn) -50.1%
COc1ccc(Cn2c(CNC(=O)Cc3ccc(OC)c(OC)c3)nc3cccnc32)cc1 -15.4%
Cc1ccc(NC(=O)CSc2nc(=O)n(Cc3ccncc3)c3c2CCC3)cc1Cl -11.5%
CCOc1cc(CNC(=O)CSc2n[nH]c(-c3ccccc3)n2)cc(OCC)c1OCC -31.7%
COc1ccc(Nc2ncc(C(=O)Nc3cccc(OC)c3)c3ccccc23)cc1 5.31%
Cc1ccc(Cl)cc1N(C)C(=O)c1sc2nc3n(c(=O)c2c1C)CCCC3 -22.1%
COC(=O)c1cc(NC2(c3ccccc3)C(=O)c3ccccc3C2=O)cc(C(=O)OC)c1 3.59%
Cc1ccccc1-n1c(SCC(=O)c2ccccc2)nnc1-c1ccc(F)cc1 -26.3%
Cc1ccc(NC(=O)NC(C)c2c(-n3cccc3)sc(C)c2C)c(C)c1 (stereo not drawn) -34.6%
COc1ccc(NC(=O)c2ccco2)cc1NC(=O)c1cccc(C)c1OC -17%
O=C(Nc1ccccc1)C1CCN(S(=O)(=O)c2ccc3c(c2)CCCN3C(=O)C2CCC2)CC1 -16.8%
COc1ccc(Cn2c(CCC(=O)Nc3cc(C)cc(C)c3)nc3cccnc32)cc1 -28.1%
Cc1ccc2c(CN3CCN(c4ccc(Cl)cc4)CC3)cc(=O)oc2c1 -5.86%
Cc1ccc(CNC(=O)CCCCCn2c(=O)c3sccc3n(CC(=O)C(C)(C)C)c2=O)cc1 -10.3%
OC1C(O)C(O)C(O)C(O)C1O (stereo not drawn) -7.79%
Cc1ccc(-c2nc3c4ccccc4n(CC(=O)N4CCN(c5ccc(F)cc5)CC4)c(=O)n3n2)cc1 -7.45%
Cc1cc(C)cc(Nc2cc(C)nc3nc(-c4ccco4)nn23)c1 -25.6%
CCOC(=O)c1c(NC(=O)c2cc(-c3ccc(Cl)cc3)on2)sc(C)c1C -2.76%
CCC(C)NC(=O)Cn1c(-c2cccs2)cc2cc(Cl)ccc21 (stereo not drawn) -8.18%
Cc1cc(N2CCC(C(=O)NCCC(C)C)CC2)n2nc(C)c(-c3ccc(Cl)cc3)c2n1 -11.4%
Cc1ccc(CN(C(=O)c2ccccc2[N+](=O)[O-])c2ccccn2)cc1 -9.51%
CC(C)(C)c1ccccc1NC(=O)c1cnn2c(C(F)F)cc(-c3ccccc3)nc12 -1.2%
COc1ccccc1NC(=O)CSc1oc(-c2ccc(F)cc2)nc1S(=O)(=O)c1ccc(Br)cc1 7.92%
Cn1c(=O)c2c(SCC(=O)Nc3ccc(F)cc3F)nc(C3CCCC3)nc2n(C)c1=O -1.74%
CCOC(=O)c1cnc(N2CCN(c3ccc(C)cc3C)CC2)c2ccccc12 -10.1%
CSc1cccc(NC(=O)CN2C(=O)COc3ccc(S(=O)(=O)N4CCC(C)CC4)cc32)c1 -26.2%
Cc1ccc(C)c(NC(=O)Cn2ccn(-c3ccc(F)cc3)c(=O)c2=O)c1 -2.17%
C[C@]12CC[C@@H]3c4ccc(O)cc4C[C@@H](CCCCCCCCCS(=O)CCCC(F)(F)C(F)(F)F)[C@H]3[C@H]1CC[C@H]2O (stereo partly drawn) -5.54%
Cc1ccccc1CNC(=O)c1ccc2[nH]c(C)c(C)c2c1 -9.63%
Cn1nnnc1SCCCNCc1cc(Cl)ccc1OCc1ccccc1F -24.4%
Cc1cccc(N2CCN(S(=O)(=O)c3c(C(=O)N4CCC(C)CC4)c(C)n(C)c3C)CC2)c1C -32.7%
Cc1ccc(NC(=O)Cn2cnc3sc(C)c(S(=O)(=O)N4CCN(c5ncccn5)CC4)c3c2=O)cc1F -7.07%
COC(=O)c1ccc(NC(=O)CC2C(=O)N(c3ccccc3)C(=O)N2Cc2ccco2)cc1 (stereo not drawn) -1.97%
COc1ccc(NC(=O)CSC2=Nc3ccccc3C3=NC(CC(=O)NCc4ccc5c(c4)OCO5)C(=O)N23)cc1 (stereo not drawn) 6.76%
CCOc1ccc(C(c2c(O)cc(C)n(Cc3ccco3)c2=O)N2CCN(c3ccccc3)CC2)cc1 (stereo not drawn) -7.52%
Cc1cccc(CNC(=O)C2CCN(S(=O)(=O)c3ccc4c(c3)CCCN4C(=O)C3CCC3)CC2)c1 0%
CCCc1cnc2c(c1SCC(=O)Nc1ccccc1F)c(=O)n(C)c(=O)n2C -25.9%
Cc1ccc(C2C=C(c3ccc(Cl)cc3)Nc3nc(NC(=O)c4ccco4)nn32)cc1 (stereo not drawn) -49.5%
COc1cc(Nc2ncc3c(n2)CCN(Cc2cc(F)cc(F)c2)C3)cc(OC)c1 -34%
CCc1nn(Cc2c(C)cc(C)cc2C)c(=O)c2cc3cc(C)ccc3n12 -7.49%
O=C(Nc1ccc(F)cc1F)N1CCN(c2ccc(Cl)c(Cl)c2)CC1 -28.3%
CCCC12CN3CC(CCC)(CN(C1)C3c1c(C)[nH]c(=O)[nH]c1=O)C2=O (stereo not drawn) 3.54%
CC1CN(C(=O)CCC(=O)NCc2ccccc2)c2cc(Cl)ccc2O1 (stereo not drawn) 1.53%
Cc1ccc(Cl)cc1NC(=O)Cn1ncc2c(C)n(Cc3ccccc3F)c(C)c2c1=O -27.4%
COc1ccc(-c2nc(-c3ccccc3)c(-c3ccc(F)cc3)[nH]2)c(OC)c1C -23.1%
Cc1cc(C)cc(N2C(=O)CCSC23C(=O)N(Cc2ccccc2)c2ccccc23)c1 (stereo not drawn) -17.8%
O=S(=O)(NCCc1csc2nc(-c3ccc(F)cc3)nn12)c1ccc(Oc2ccccc2)cc1 -38.5%
CCOc1ccc(CCNC(=O)c2ccc3c(c2)sc2nc(-c4ccc(F)cc4)cn23)cc1OCC -16.4%
Cc1ccc(C(CC(=O)Nc2ccc(F)c(Cl)c2)N2Cc3ccccc3C2=O)cc1 (stereo not drawn) -12.7%
COc1cccc(NC(=O)N(Cc2c[nH]c3ccccc23)C2CCCCC2)c1 9.16%
COc1cccc(CNCCSc2nnnn2C)c1OCc1ccc(F)cc1 -19.9%
CC(C)c1ccc(NC(=O)CCn2c(=O)c3cccn3c3ccccc32)cc1 -15%
CCOC(=O)c1ccn(-c2nc(-c3cccc(OC)c3)cc(C(F)(F)F)n2)n1 -24.2%
Cc1ccc(N2CC(NC(=O)C3CC3)CC2=O)cc1C (stereo not drawn) -6.16%
COc1cc(C(=O)Nc2nonc2-c2ccc(Cl)cc2)cc(OC)c1OC -42.4%
Cc1nc2sccn2c(=O)c1S(=O)(=O)Nc1ccc(N2CCN(C(=O)C(C)C)CC2)cc1 -15.9%
CCOC(=O)c1[nH]c(C)c(CCC(=O)Nc2ccc(Br)c(C)c2)c1C -24%
CC1CCN(S(=O)(=O)c2ccc3c(c2)N(CC(=O)NCCCN2CCCC(C)C2)C(=O)CS3)CC1 (stereo not drawn) -0.178%
Cc1cccc(CNC(=O)c2ccc(NC(=O)N3CCSc4ncccc43)cc2)c1 -5.01%
CCN(CC)CCN -5.07%
CCOc1ccc(NC(=O)C(C)Sc2nc3ncccc3o2)cc1 (stereo not drawn) 22.7%
Cc1cccc(NC(=O)c2oc3ccc(S(=O)(=O)N4CCC5(CC4)OCCO5)cc3c2C)c1C -40%
COc1ccc(-n2nc(C(=O)Nc3cccc(C)n3)c3c4ccccc4n(C)c3c2=O)cc1 -12.1%
CC(=O)c1ccc(N2CCN(c3ncnc4c3cnn4C)CC2)cc1 -9.13%
Cc1ccc2c(c1)-c1ncc(C(=O)c3cc(Br)ccc3O)cc1CO2 -24.1%
COc1ccc(C)cc1NC(=O)CN1C(=O)COc2ccc(S(=O)(=O)NC3CCCC3)cc21 -22.4%
CCOc1ccccc1NC(=O)c1nn(C)c2c1CSc1ccccc1-2 -7.54%
CCOc1ccc(-c2csc(-c3c(N)c(C(=O)c4ccc5c(c4)OCO5)n4ccccc34)n2)cc1 11.2%
Cn1nc(-c2ccc(N3CCCCC3)c(NC(=O)c3ccc(Cl)cc3)c2)c2ccccc2c1=O 16.2%
CN(C)CCNC(=O)c1ccc(Cn2c(=O)c3cccn3c3cccnc32)cc1 -8.74%
CCOC(=O)c1cc(S(=O)(=O)Nc2ccccc2OCC)[nH]n1 -12.2%
Cc1ccccc1CSc1nc2c([nH]c3ccccc32)c(=O)n1C -8.33%
COc1ccc(-n2c(=O)c3c4c(sc3n3c(SC(C)C)nnc23)COC(C(C)C)C4)cc1 (stereo not drawn) -2.39%
CCCc1cc(=O)[nH]c(SCc2nc(-c3ccccc3F)no2)n1 -1.21%
CCCn1c(=NC(=O)c2c(-c3c(F)cccc3Cl)noc2C)c(C(=O)OCC)cc2c(=O)n3ccccc3nc21 2.92%
CC(=O)c1cccc(Nc2ccc3cc(S(=O)(=O)N4CCCC4)ccc3n2)c1 -18.9%
Cc1ccc(-n2ncc(C(=O)NCCN3CCc4ccccc4C3)c2C2CCNCC2)cc1C -5.13%
COc1ccc(NC(=O)c2cc(=O)c3ccc(C)c(C)c3o2)cc1Cl 10.7% [at 11.5 µM, percent change from vehicle, -100% = no light]
COc1ccccc1-c1cc(C(F)(F)F)nc(S(=O)(=O)CCCC(=O)Nc2ccc(F)cc2F)n1 -92.2%
O=C(Cn1c(=O)n(Cc2nc(-c3ccccc3)no2)c(=O)c2cc3c(cc21)OCO3)Nc1cccc(C(F)(F)F)c1 -18.9%
COc1ccc(-c2ccc(CCC(=O)O)n2-c2cc(Cl)ccc2O)cc1 11%
